In all, about 110,000 compounds went through this assay and about 230 (0.21%) showed an effect of 50% or more. This is one part of the list.
target: DPAP1 (Plasmodium falciparum, UniProt Q8IIJ9); assay: primary screen, percent inhibition; read by cleavage of a fluorogenic dipeptide substrate; higher = more effect of the substance; set-up: species or system P. falciparum D10 trophozoite lysates; single well
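Further: 30 min substrate incubation versus DMSO and 10 µM JCP410 controls.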

DPAP1, sequence (Q8IIJ9 whole entry, looked up): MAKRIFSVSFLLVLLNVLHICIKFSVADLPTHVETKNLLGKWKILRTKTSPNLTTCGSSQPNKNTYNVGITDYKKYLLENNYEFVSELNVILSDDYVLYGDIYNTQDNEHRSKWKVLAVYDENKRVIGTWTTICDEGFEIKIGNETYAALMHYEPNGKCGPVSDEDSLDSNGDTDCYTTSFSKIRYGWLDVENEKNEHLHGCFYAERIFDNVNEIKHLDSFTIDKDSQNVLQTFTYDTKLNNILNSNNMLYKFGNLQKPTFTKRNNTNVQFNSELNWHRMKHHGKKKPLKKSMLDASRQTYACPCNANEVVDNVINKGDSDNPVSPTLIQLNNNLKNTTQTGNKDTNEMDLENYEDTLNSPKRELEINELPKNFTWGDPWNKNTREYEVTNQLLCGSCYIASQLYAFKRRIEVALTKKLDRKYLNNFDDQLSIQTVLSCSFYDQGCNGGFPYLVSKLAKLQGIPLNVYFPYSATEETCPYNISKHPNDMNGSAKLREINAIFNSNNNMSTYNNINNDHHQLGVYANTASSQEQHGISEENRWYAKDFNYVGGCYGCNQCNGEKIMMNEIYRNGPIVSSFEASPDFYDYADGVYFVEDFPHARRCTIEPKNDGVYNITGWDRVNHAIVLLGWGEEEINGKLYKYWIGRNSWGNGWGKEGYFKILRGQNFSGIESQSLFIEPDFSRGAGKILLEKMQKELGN

In order of rising “% Inhibition @ 10 uM” value:
1. CC(C)N(C1=N/C(=C\c2ccco2)C(=O)N1c1ccccc1)C(C)C  -11.9%
2. Cc1ccc(C)c(Cn2cccc2C2=NCCO2)c1  -9.23%
3. Cc1cc(OCC(=O)N2CCCCC2)c(C(C)C)cc1Cl  -8.37%
4. Cc1nn2c(=O)cc(CSc3nc[nH]n3)nc2s1  -7.44%
5. COc1cc(CNCCSc2nnnn2C)ccc1OCc1cccs1  -7.24%
6. CCOC(=O)c1c(NC(=O)C(c2ccccc2)c2ccccc2)sc2c1C1CCN2CC1  -6.78%
7. COc1ccc(OCCCC(=O)Nc2ccc(OC)c(Cl)c2)cc1  -6.75%
8. O=C(NCCSc1nnnn1-c1ccccc1)C(c1ccccc1)c1ccccc1  -6.74%
9. O=C(Nc1ccccc1C(=O)Nc1ccccc1)Nc1cccc2ccccc12  -6.02%
10. O=C1C(O)=C(c2ccccc2F)C(=O)c2ccccc21  -5.51%
11. COc1ccccc1C(CCNS(=O)(=O)c1ccc(C)cc1)c1ccco1 (centres unmarked)  -4.77%
12. CCCc1c(O)nc2c(C)cccc2c1C  -4.32%
13. COc1ccc(OC)c(NC(=O)C(N)=O)c1  -4.24%
14. Cc1cc2nc3c(=O)n(Cc4ccccc4)c(=O)[nH]c3nc2cc1N  -4.21%
15. Cc1occc1C(=O)Nc1nc(-c2ccc(Cl)c(Cl)c2)cs1  -4.13%
16. COc1cccc(/C=C2\NC(=O)N(c3cccc(Cl)c3)C2=O)c1O  -3.71%
17. CCN(CC)C(=O)C1CCCN(Cc2ccccc2Br)C1 (centres unmarked)  -3.65%
18. O=C(O)Cn1cc(C(=O)c2ccccc2F)c2ccccc21  -3.53%
19. COc1cc(C(=O)NC2CC2)cc(OC)c1OC  -3.39%
20. O=C(Nc1nc(-c2ccc(Br)cc2)cs1)c1ccco1  -2.99%
21. Nc1nnc(SCC(=O)Nc2ccccn2)s1  -2.87%
22. CCCCN1CC2=C(C1=O)C(c1ccc(O)cc1)NC(=O)N2C (centres unmarked)  -2.63%
23. COc1cc(/C=C/c2ccc([N+](=O)[O-])cc2)ccc1O  -2.51%
24. COc1ccc(CCNc2nc3ccccc3c3nc(-c4cccnc4)nn23)cc1OC  -2.42%
25. Cc1ccc(S(=O)(=O)c2nnn3c2nc(N2CCCCCC2)c2sccc23)cc1  -2.26%
26. O=C(c1cc2ccccc2oc1=O)N(Cc1ccccc1)c1cccc([N+](=O)[O-])c1  -1.98%
27. Cc1cc(C)n(-c2nc3ccccc3nc2N2CCN(S(=O)(=O)c3cccs3)CC2)n1  -1.68%
28. CCOc1ccc(S(=O)(=O)Nc2cccc(N(C)S(C)(=O)=O)c2)cc1  -1.57%
29. CCN(CC)CC(O)COc1ccc(OC)cc1 (centres unmarked)  -1.45%
30. CC(=O)Nc1c(O)nc2ccc(Br)cc2c1-c1ccccc1  -1.44%
31. O=C(O)c1ccc(S(=O)(=O)N2CCOCCOCCOCC2)cc1  -1.17%
32. O=C(O)C1C2CCC(C2)C1C(=O)Nc1ccccc1F (centres unmarked)  -1.12%
33. Cc1n[nH]c(C)c1CCCOc1ccccc1  -1.05%
34. Cc1[nH]c2ccccc2c1SCCNC(=O)Cc1cccc2ccccc12  -0.972%
35. Cc1ccc(S(=O)(=O)NCC2CCC(C(=O)NCCCN3CCCC3)CC2)cc1 (centres unmarked)  -0.971%
36. CCCn1c2ccccc2c2cnn(CC(=O)NCc3ccco3)c(=O)c21  -0.968%
37. Cc1ccc(F)cc1S(=O)(=O)NCCSc1nnc(CN2CCOCC2)n1-c1ccccc1  -0.92%
38. CCOc1ccccc1NC(=O)c1cncc(Br)c1  -0.872%
39. O=C(COc1ccccc1)Nc1cccc2cccnc12  -0.795%
40. CC(C)C[C@H](NC(=O)OCc1ccccc1)C(=O)N[C@@H](CCc1ccccc1)[C@@H](O)CN(Cc1ccccc1)C(=O)OC(C)(C)C  -0.778%
41. COc1cccc2cc(NC(=O)C3CCCCC3)c(=O)oc12  -0.769%
42. Cc1ccc(CCNc2ccccc2)c[n+]1[O-]  -0.759%
43. CC1=C(C(=O)Nc2nc3ccccc3s2)C(c2ccccc2)C2=C(O)CC(C)(C)CC2=N1 (centres unmarked)  -0.725%
44. COC(=O)c1cc2occc2n1Cc1cccc(Cl)c1  -0.246%
45. COc1cccc2c(C)cc(N3CCC(O)(c4ccc(Br)cc4)CC3)nc12  -0.233%
46. CCCN(CCC)CCNC(=O)c1cc2c(C)nc3ccccc3c2o1  -0.22%
47. Cc1ccc(-c2cc3nc(C)cc(-c4ccccc4)n3n2)cc1  -0.169%
48. CC(NC(=O)CSc1nnc2c3ccccc3n(C)c2n1)c1ccccc1 (centres unmarked)  -0.0735%
49. CC(=O)N1CCN(Cc2ccc(OC(F)(F)F)cc2)CC1  -0.0648%
50. COCCCNC(=O)Cn1nc(-c2ccc(Cl)cc2)ccc1=O  -0.0542%
51. NC(CC(=O)O)c1cccc2ccccc12 (centres unmarked)  -0.0267%
52. Cc1ccc(N2C(=O)C3C4C=CC(C5CC45)C3C2=O)cc1Cl (centres unmarked)  0.13%
53. CCOc1ccc(NC(=O)COc2cccc3ccccc23)cc1  0.142%
54. Cn1c(C(=O)NC2CCS(=O)(=O)C2)cc2c(=O)n3ccccc3nc21 (centres unmarked)  0.214%
55. CCc1ccc(S(=O)(=O)/N=C2/C=C(Br)C(=O)c3ccccc32)cc1  0.222%
56. CC(=O)Nc1ccc(N2C(=O)c3ccc(C(=O)O)cc3C2=O)cc1  0.266%
57. O=C(O)c1cccc(NC(=O)c2ccccc2C(=O)O)c1  0.266%
58. Cc1ccc(CN(CC(=O)Nc2cccc(Cl)c2)S(=O)(=O)c2ccccc2)cc1  0.331%
59. O=c1oc2c(Cl)cc(Cl)cc2cc1-c1nc2ccccc2[nH]1  0.343%
60. COc1ccc(Br)cc1CNC(=O)C1CCCN(C(=O)N(C)C)C1 (centres unmarked)  0.514%
61. Clc1ccccc1CN1CCN(Cc2ccncc2)CC1  0.673%
62. O=C(CCCn1c(=O)c2cccn2c2cccnc21)N1CCN(Cc2ccc3c(c2)OCO3)CC1  0.677%
63. O=C(Nc1ccc(S(=O)(=O)N2CCCCC2)cc1)c1ccc(Cl)cc1Cl  0.709%
64. CC(=O)Nc1ccc(S(=O)(=O)N2CCN(C(=O)N(C)C)CC2)cc1  0.755%
65. Cc1cc2c3c(c1C)C(=O)C(=O)N3C(C)(C)CC2C (centres unmarked)  0.889%
66. CCc1nc2ccccc2n1Cc1ccccc1C  1.12%
67. CC(C)(C)C(=O)CNC1C2CC3CC(C2)CC1C3 (centres unmarked)  1.13%
68. Cc1cc(C)cc(-n2nnc(-c3nc(-c4ccncc4)no3)c2N)c1  1.13%
69. Cc1ccsc1CCNC(=O)c1cc(S(=O)(=O)N2CCOCC2)cn1C  1.39%
70. COCCNS(=O)(=O)c1csc(C(N)=O)c1  1.41%
71. Cc1ccccc1-c1nc(CN2CCCC(C(=O)O)C2)c(C)o1 (centres unmarked)  1.42%
72. CCc1ccc(Sc2cc(C(=O)NCCCOC)c3ccccc3n2)cc1  1.62%
73. Cc1ccc(N(CC(N)=O)S(=O)(=O)c2ccccc2)c(C)c1  1.62%
74. COc1ccccc1OCc1cccc(C(=O)O)c1  1.69%
75. COc1cc(OC)c(C2C3=C(O)CC(C)(C)CC3=Nc3nc4ccccc4n32)cc1OC (centres unmarked)  1.73%
76. CC1CC(C)CN(C2CCN(Cc3ccccc3)CC2)C1 (centres unmarked)  1.88%
77. COc1ccc(C(=O)Nc2cc(Cl)cc(Cl)c2)cc1  1.91%
78. Cc1ccccc1NC(C#N)c1ccc(Br)cc1 (centres unmarked)  2.23%
79. COc1ccc(-c2nc(O)c3c(n2)Oc2ccc(Br)cc2C3)c(OC)c1OC  2.32%
80. Cc1[nH]c2ccc(CN3C(=O)c4ccccc4C3=O)cc2c1C  2.45%
81. Cc1ccccc1OCCCCN1CCCCC1  2.76%
82. COC(=O)c1sc(-c2ccccc2)cc1N  2.84%
83. COc1ccc(S(=O)(=O)N2CCN(c3ccccc3OC)CC2)cc1OC  2.92%
84. Cc1c(CC(C)C)nc(N)c(C#N)c1-c1ccc(F)cc1  2.92%
85. N#Cc1c(N/C=C/C(=O)c2cccs2)sc2c1CCCC2  3.19%
86. CCN1CCN(Cc2ccc(OC)c(OC)c2OC)CC1  3.25%
87. CCC(Sc1nc2ccccc2c2nc(C)nn12)C(=O)NCc1ccc(C)cc1 (centres unmarked)  3.38%
88. COc1cccc(C(=O)Nc2nc3c(C)cccc3s2)c1OC  3.81%
89. O=C(O)c1cc(S(=O)(=O)N2CCCCCC2)ccc1Cl  3.85%
90. CC(Sc1cccc[n+]1[O-])c1ccccc1 (centres unmarked)  4.11%
91. Cc1ccc(C)c(NC(=O)/C=C/c2ccccc2Cl)c1  4.34%
92. Cc1ccc2oc3c(c2c1)-c1oc(C)cc1C(C)(c1ccccc1)CC3 (centres unmarked)  4.51%
93. CC1CCN(S(=O)(=O)c2c[nH]cn2)CC1  4.51%
94. Clc1ncnc2c1nc1n2CCCCC1  5.12%
95. Cc1ccc(CS(=O)(=O)c2ncc(Cl)c(C(=O)NCc3ccccc3)n2)cc1  5.54%
96. CCN(CC)CCCNc1oc(/C=C/c2ccc(F)cc2)nc1C#N  5.68%
97. Cc1cc2nc(O)c(O)nc2cc1S(=O)(=O)NCC(C)c1ccccc1 (centres unmarked)  6.01%
98. CCC1(CC)C(=O)N(C)C(=O)N(C)C1=S  6.48%
99. CCCOc1ccc(CN(C(=O)c2cc(=O)c3cc(Cl)ccc3o2)C2CCS(=O)(=O)C2)cc1 (centres unmarked)  9.43%
100. Cc1cccc(C)c1-n1nnnc1C(c1ccc(O)cc1)N1CCOCC1 (centres unmarked)  9.68%
101. COc1ccc(/C=C2/C(=O)N(c3ccccc3)C(=S)N(c3ccccc3OC)C2=O)cc1  11.2%
102. CC(C)OC(=O)c1nnn(-c2nonc2N)c1CN1CCCCC1  14.6%
103. Cc1c(C(=O)NCc2ccc(OC(C)C)cc2)oc2c1-c1n[nH]cc1CC2  21.6%
104. COc1cc(C2C(C#N)=C(SCc3ccccc3)N=C3CCCC(O)=C32)ccc1O (centres unmarked)  32%

Reference: publication PMC6919601, “Identification of Plasmodium dipeptidyl aminopeptidase allosteric inhibitors by high throughput screening” (PLoS ONE, 2019)
